Several values for one entry are separate records, joined by “and”; a condition that tells them apart may be missing. Identical values can stand only once. This list was built around the results that the source calls inconclusive (neither active nor inactive); the mix of calls is not that of the screen. For some assays here: Where the call is inconclusive, the potency comes from a doubtful curve fit. A structure can be active in one record and inactive in another. Activity calls are given as the source filed them. Unless noted, calls follow the shape of the dose curve; as a rule, active = well fitted curve in the direction sought with a large enough effect in the repeat runs; inconclusive = weak or mixed curves; inactive = no such curve, though single readings can be large; an effect the other way counts as inactive or inconclusive.
Assays:
[1] = qHTS assay to identify small molecule agonists of H2AX (AID 1224845; active = well fitted activation curve with a large enough effect in the signal ratio in the repeat runs, not every such curve was filed as active; inconclusive = weak or mixed curves; the % refers to the signal ratio; also: potency is read from the fitted curve at half-maximal effect; as to activation (H2AX phosphorylation): % is scaled to controls: 0 for no effect and ±100 for the full control effect); conditions: CHO-K1 phospho-H2AX Ser139 HTRF, 3 h; activation (H2AX phosphorylation): at 154 µM (top of the series) unless noted
Summary of the method: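 Phospho-H2AX Ser139 measured by HTRF (ex 320 nm; em 665 and 620 nm) after 24 hr antibody incubation. Compounds, 15 concentrations, 0.76% DMSO, were applied to CHO-K1 cells for 3hr at 37C before lysis.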

[2] = qHTS assay to identify small molecule agonists of the hypoxia (HIF-1) signaling pathway (AID 1224846; active = well fitted activation curve with a large enough effect in the signal ratio in the repeat runs, not every such curve was filed as active; inconclusive = weak or mixed curves; the % refers to the signal ratio; also: potency is read from the fitted curve at half-maximal effect; as to activation: % is scaled to controls: 0 for no effect and ±100 for the full control effect); conditions: HRE-bla ME-180 cells, beta-lactamase ratio, 17 h; activation: at 76.8 µM (top of the series) unless noted
Summary of the method: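 Measured by blue/green FRET after loading CCF4-AM: beta-lactamase expressed from a hypoxia response element in ME-180 cells. Test agents were delivered in DMSO and left 17 hrs; cells had been plated 5 hrs earlier in low-serum (0.5% dialyzed FBS) medium.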

[3] = qHTS RealTime-Glo MT Cell Viability Assay in HEK293 cells - 32 hour (AID 1224868); conditions: RealTime-Glo luminescence; series mostly up to 76.8 µM; also: nearly all actives have a fitted effect of over 50% in size; also: potency is read from the fitted curve at half-maximal effect
Summary of the method: (§1)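 Luminescence generated by NanoLuc from substrate produced by living HEK293 cells served as the viability signal. Each value reflects the reading at its stated time point during continuous 40 h compound exposure at 37 C.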

[4] = qHTS RealTime-Glo MT Cell Viability Assay in HepG2 cells - 40 hour (AID 1224870); conditions: RealTime-Glo luminescence; series mostly up to 76.8 µM; also: potency is read from the fitted curve at half-maximal effect; nearly all actives have a fitted effect of over 50% in size
Summary of the method: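 Real-time viability: cells seeded at 600 per well together with NanoLuc and cell-permeant prosubstrate, compounds added after 5 h incubation. Luminescence tracked at 0, 8, 16, 24, 32 and 40 h of exposure.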

[5] = qHTS RealTime-Glo MT Cell Viability Assay in HEK293 cells - 40 hour (AID 1224874); conditions: RealTime-Glo luminescence; max response: hits give low values; also: nearly all actives have a fitted effect of over 50% in size; also: potency is read from the fitted curve at half-maximal effect; as to max response: % is scaled to controls: 0 for no effect and ±100 for the full control effect
Summary of the method: (§2)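 qHTS format; HEK293 cells with NanoLuc/prosubstrate reagent, 37 C/5% CO2 for 5 h pre-dosing; compounds 23 nL in DMSO; luminescence at each time point reflects viable cells.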

[6] = A CellTox Green Cytotoxicity Assay to monitor cytotoxicity in HEK293 cells - 24 hour (AID 1224875); conditions: CellTox Green fluorescence; series mostly up to 76.8 µM; also: potency is read from the fitted curve at half-maximal effect; nearly all actives have a fitted effect of over 45% in size
Summary of the method: (§3)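 Each value comes from one timepoint of a single continuous run in which HEK293 cells with CellTox Green were exposed to compound for up to 40 h at 37 C, dye fluorescence rising with cell death.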

[7] = A CellTox Green Cytotoxicity Assay to monitor cytotoxicity in HepG2 cells - 16 hour (AID 1224876); conditions: CellTox Green fluorescence; series mostly up to 76.8 µM; also: potency is read from the fitted curve at half-maximal effect; nearly all actives have a fitted effect of over 45% in size
Summary of the method: (§4)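 Continuous culture of HepG2 cells with a membrane-impermeant DNA dye; rising fluorescence marks dead cells. Compound exposure lasted up to 40 h at 37 C, with reads every 8 h from 0 h.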

[8] = qHTS RealTime-Glo MT Cell Viability Assay in HEK293 cells - 0 hour (AID 1224880); conditions: RealTime-Glo luminescence; series mostly up to 76.8 µM; also: potency is read from the fitted curve at half-maximal effect; nearly all actives have a fitted effect of over 45% in size
Summary of the method: as §2

[9] = qHTS RealTime-Glo MT Cell Viability Assay in HEK293 cells - 16 hour (AID 1224872); conditions: RealTime-Glo luminescence; series mostly up to 76.8 µM; also: nearly all actives have a fitted effect of over 50% in size; also: potency is read from the fitted curve at half-maximal effect
Summary of the method: as §1

[10] = A CellTox Green Cytotoxicity Assay to monitor cytotoxicity in HepG2 cells - 40 hour (AID 1224879); conditions: CellTox Green fluorescence; series mostly up to 76.8 µM; also: potency is read from the fitted curve at half-maximal effect; nearly all actives have a fitted effect of over 40% in size
Summary of the method: as §4

[11] = qHTS assay to identify small molecule agonists of H2AX - cell viability counter screen (AID 1224847; calls by dose curve; also: nearly all actives have a fitted effect of over 30% in size; also: potency is read from the fitted curve at half-maximal effect); conditions: CHO-K1 viability, CellTiter-Glo luminescence, 3 h; series mostly up to 154 µM
Summary of the method: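 Viability of CHO-K1 (wild type) cells after 3 hr compound exposure was measured by CellTiter-Glo luminescence.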

[12] = qHTS assay to identify small molecule agonists of the estrogen related receptor (ERR) signaling pathway from Tox21 library (AID 1224849; calls by dose curve; also: % is scaled to controls: 0 for no effect and ±100 for the full control effect; nearly all actives have a fitted effect of over 15% in size); conditions: ERR reporter cell line, ONE-Glo luciferase, 18 h; at 92.4 µM (top of the series)
Summary of the method: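 We plated ERR reporter cells, waited 6 h, added compounds in DMSO by pin tool and incubated them 18 h at 37 C. ONE-Glo was then added and luminescence read after 30 min.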

[13] = A CellTox Green Cytotoxicity Assay to monitor cytotoxicity in HepG2 cells - 24 hour (AID 1224878); conditions: CellTox Green fluorescence; series mostly up to 76.8 µM; also: potency is read from the fitted curve at half-maximal effect; nearly all actives have a fitted effect of over 45% in size
Summary of the method: as §4

[14] = A CellTox Green Cytotoxicity Assay to monitor cytotoxicity in HEK293 cells - 0 hour (AID 1224869); conditions: CellTox Green fluorescence; series mostly up to 76.8 µM
Summary of the method: as §3

[15] = A CellTox Green Cytotoxicity Assay to monitor cytotoxicity in HEK293 cells - 32 hour (AID 1224881); conditions: CellTox Green fluorescence; series mostly up to 76.8 µM; also: potency is read from the fitted curve at half-maximal effect; nearly all actives have a fitted effect of over 40% in size
Summary of the method: as §3

[16] = qHTS RealTime-Glo MT Cell Viability Assay in HepG2 cells - 24 hour (AID 1224867); conditions: RealTime-Glo luminescence; series mostly up to 76.8 µM
Summary of the method: (§5)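 Tox21 10K library screened in qHTS format on HepG2 cells carrying RealTime-Glo reagents. Compounds were added after a 5 h preincubation, and the luminescent signal from continuous culture was measured repeatedly during 40 h treatment.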

[17] = A CellTox Green Cytotoxicity Assay to monitor cytotoxicity in HEK293 cells - 40 hour (AID 1224871); conditions: CellTox Green fluorescence; series mostly up to 76.8 µM
Summary of the method: as §3

[18] = qHTS RealTime-Glo MT Cell Viability Assay in HepG2 cells - 32 hour (AID 1224877); conditions: RealTime-Glo luminescence; series mostly up to 76.8 µM; also: potency is read from the fitted curve at half-maximal effect; nearly all actives have a fitted effect of over 55% in size
Summary of the method: as §5
Tags tell the direction and shape of the fitted curve or compound fluorescence and quenching.

CCCCCCCC[P+](CCCCCCCC)(CCCCCCCC)CCCCCCCC
active: Potency [3] 0.434 µM | Potency [4] 10.9 µM | Potency [5] 0.194 µM | Potency [6] 4.87 µM | Potency [7] 12.2 µM
inconclusive: Potency [1] 5.63 µM [activator, full curve, poor fit] | Potency [2] 3.45 µM [falling, full curve] | Potency [8] 19.4 µM [falling, partial curve]

c1ccc2cc3c(ccc4ccccc43)cc2c1
inconclusive: Potency [1] 127 µM | activation [2] 7.7% | Potency [3] 19.5 µM [rising, single point] | Potency [9] 3.09 µM [rising, full curve] | Potency [5] 21.9 µM [rising, partial curve] | Potency [8] 30.9 µM [rising, single point]
active: Potency [10] 21.9 µM
inactive: max response [5] 0.679%

CC(CC=O)CCCC(C)(C)O (stereo not given)
inactive: Potency [1] | Potency [11] | Potency [3]
inconclusive: activity change, positive = activation [12] 2.83%

CCOC(=O)[C@@](C)(N)Cc1ccc(O)c(O)c1
inconclusive: Potency [1] 3.1 µM [falling, full curve] | Potency [2] 42.5 µM [falling, partial curve, poor fit] | Potency [7] 26.8 µM [activator, single point] | Potency [13] 26.8 µM [activator, single point] | Potency [10] 26.8 µM [activator, single point]

O=C(Nc1cccc2c(=O)cc(-c3nn[nH]n3)oc12)c1ccc(OCCCCc2ccccc2)cc1
inactive: Potency [1] | Potency [14] | Potency [9]
inconclusive: Potency [2] 26.8 µM [falling, single point] | Potency [7] 23.9 µM [activator, partial curve] | Potency [13] 23.9 µM [activator, single point] | Potency [10] 26.8 µM [activator, single point] | Potency [8] 26.8 µM [falling, single point]

O=C(Oc1ccccc1)c1cccc(C(=O)Oc2ccccc2)c1
inconclusive: Potency [1] 106 µM [rising, single point] | Potency [2] 32.6 µM [falling, partial curve] | Potency [3] 65 µM [cytotoxic, partial curve, poor fit] | Potency [6] 41 µM [activator, partial curve, poor fit] | Potency [7] 65 µM [activator, single point] | Potency [13] 65 µM [activator, single point] | Potency [10] 65 µM [activator, single point] | Potency [15] 51.6 µM [activator, partial curve, poor fit]
inactive: max response [5] 5.48%

CN1CCN(CCCN2c3ccccc3Sc3ccc(S(=O)(=O)N(C)C)cc32)CC1
active: Potency [7] 23.9 µM | Potency [13] 26.8 µM | Potency [10] 26.8 µM
inconclusive: Potency [1] 61.9 µM [activator, single point] | Potency [11] 55.2 µM [cytotoxic, single point] | Potency [16] 26.8 µM [falling, single point] | Potency [3] 26.8 µM [cytotoxic, single point] | Potency [4] 26.8 µM [falling, single point] | Potency [17] 26.8 µM [activator, single point] | Potency [9] 26.8 µM [cytotoxic, single point] | Potency [5] 26.8 µM [cytotoxic, single point] | Potency [6] 26.8 µM [activator, single point] | Potency [18] 26.8 µM [cytotoxic, single point] | Potency [8] 16.9 µM [rising, partial curve] | Potency [15] 26.8 µM [activator, single point]

N#[N+]c1ccc2c(S(=O)(=O)[O-])cccc2c1O
inconclusive: Potency [1] 56.6 µM [falling, partial curve]
inactive: Potency [11]

CC1=CCC(C(C)C)=CC1
inactive: Potency [1] | Potency [11]

O=C1OC2(c3ccc(O)cc3Oc3cc(O)ccc32)c2ccccc21
inconclusive: Potency [1] 61.9 µM [rising, single point] | Potency [2] 43.6 µM [rising, partial curve] and 19 µM [rising, partial curve] | Potency [16] 12 µM [falling, partial curve, poor fit] | Potency [18] 7.56 µM [cytotoxic, partial curve, poor fit]
